# In publication PMC4336329 (PLoS ONE, 2015):
# In all, about 310,000 compounds went through this assay and about 2,200 (0.71%) showed an effect of 50% or more. Effects have a minus sign here. This is one part of the list.
# Target: human ether-à-go-go-related gene (hERG) potassium channel (human, UniProt Q12809)
# Assay: primary screen, population patch clamp on CHO cells stably expressing hERG
# Chain of human ether-à-go-go-related gene (hERG) potassium channel (Q12809 whole entry, looked up): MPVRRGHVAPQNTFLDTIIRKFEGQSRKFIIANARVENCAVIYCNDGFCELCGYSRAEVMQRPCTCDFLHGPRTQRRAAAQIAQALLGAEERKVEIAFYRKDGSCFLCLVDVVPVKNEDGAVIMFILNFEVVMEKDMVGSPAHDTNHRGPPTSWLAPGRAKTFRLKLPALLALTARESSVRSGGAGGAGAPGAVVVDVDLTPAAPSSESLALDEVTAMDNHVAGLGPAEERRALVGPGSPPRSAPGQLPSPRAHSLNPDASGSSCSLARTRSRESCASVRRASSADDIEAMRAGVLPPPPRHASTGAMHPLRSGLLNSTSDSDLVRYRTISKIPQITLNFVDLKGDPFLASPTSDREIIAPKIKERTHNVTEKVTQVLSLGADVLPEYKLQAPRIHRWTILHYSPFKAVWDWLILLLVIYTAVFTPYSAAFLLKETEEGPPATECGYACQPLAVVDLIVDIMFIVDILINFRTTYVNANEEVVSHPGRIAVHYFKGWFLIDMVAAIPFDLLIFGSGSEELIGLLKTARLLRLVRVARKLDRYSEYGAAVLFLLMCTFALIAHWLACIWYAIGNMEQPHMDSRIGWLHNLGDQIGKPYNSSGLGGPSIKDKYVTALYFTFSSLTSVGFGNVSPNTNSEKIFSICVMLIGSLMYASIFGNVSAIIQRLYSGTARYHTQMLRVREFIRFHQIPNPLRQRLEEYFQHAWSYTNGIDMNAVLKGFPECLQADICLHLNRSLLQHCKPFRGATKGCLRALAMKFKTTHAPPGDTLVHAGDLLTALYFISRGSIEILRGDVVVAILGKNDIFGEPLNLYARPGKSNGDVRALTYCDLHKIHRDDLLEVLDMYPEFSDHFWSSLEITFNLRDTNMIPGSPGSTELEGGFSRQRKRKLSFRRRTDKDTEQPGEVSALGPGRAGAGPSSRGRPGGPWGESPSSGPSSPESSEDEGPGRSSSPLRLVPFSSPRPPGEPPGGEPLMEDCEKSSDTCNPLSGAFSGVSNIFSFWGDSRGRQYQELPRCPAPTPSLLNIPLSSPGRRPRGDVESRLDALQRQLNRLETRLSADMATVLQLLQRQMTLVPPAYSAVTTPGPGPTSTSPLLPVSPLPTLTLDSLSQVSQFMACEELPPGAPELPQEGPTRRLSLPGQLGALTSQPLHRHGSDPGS
row,Structure (SMILES),"hERG current change (%, negative = inhibition) at 1uM [%]"
1,NC(=O)C1(N2CCCCC2)CCN(C(=S)NCCc2ccccc2)CC1,5.79
2,COc1cccc(C2=NOC(C(=O)Nc3cc(C)nn3-c3ccccc3)C2)c1OC (stereo not drawn),5.72
3,Cc1cc(C)cc(NC(=O)C(C)N2C(=O)c3ccccc3C2=O)c1 (stereo not drawn),13.4
4,Cc1ccc(NC(=O)N2CCCC2C(=O)Nc2ccc3c(c2)OCO3)cc1 (stereo not drawn),10.4
5,c1ccc(-c2n[nH]c3c2CCC3)cc1,10.1
6,CCOc1ccc(-c2nonc2NC(=O)c2ccco2)cc1,6.42
7,CC(C)C(=O)Nc1ccc(C(=O)N2CCCCCC2)cc1,6.54
8,Cc1cccc(N(CC(=O)N2CCCCCC2)S(C)(=O)=O)c1C,9.58
9,O=C(NC(NC(=S)Nc1ccc(Cl)cc1)C(Cl)(Cl)Cl)c1ccco1 (stereo not drawn),0.276
10,COc1ccc(NC(=O)COC(=O)c2c3c(nc4ccccc24)CCCC3)cc1,8.15
11,CC1CCCCN1C(=O)Nc1cccc(C(F)(F)F)c1 (stereo not drawn),9.57
12,O=C(CSc1ccccc1C(=O)O)NC1CCCCCC1,10.1
13,CC1CCCCC1NC(=O)CSc1ccc([N+](=O)[O-])cc1 (stereo not drawn),0.651
14,O=C(CNC(=S)N(Cc1ccccc1)Cc1cccnc1)NCCN1CCOCC1,10.5
15,Cc1ccc(CCNC(=O)C2CC(c3ccc(C(F)(F)F)cc3)=NO2)cc1 (stereo not drawn),15.6
16,CC(C)Oc1ccc(C(=O)OCC(=O)NCCNC(=O)COC(=O)c2ccc(OC(C)C)cc2)cc1,8.62
17,CCCOC(=O)Cn1cnc2scc(-c3ccc(C)cc3)c2c1=O,10.5
18,O=C(NCCCN1CCCC1=O)c1cccs1,4.94
19,O=P(C(Cl)Cl)(N1CCOCC1)N1CCOCC1,17.8
20,COc1ccc(NC(=O)Oc2cc(C)ccc2C(C)C)cc1,8.47
21,CCc1ccc2nc3sc(C(=O)O)cc3cc2c1,19.2
22,Cc1nc2ccccc2cc1C(=O)N(C)Cc1ccccc1,16.3
23,CCOc1ccccc1Nc1cc(C)nc2nnnn12,6.21

row,Structure (SMILES),"hERG current change (%, negative = inhibition) at 1uM [%]"
1,COc1cc(/C=C2\SC(=S)N(CCC(=O)Nc3ccccc3O)C2=O)cc(OC)c1OC,12.8
2,Cc1ccn2c(NC(C)(C)C)c(-c3cccs3)nc2c1,4.49
3,CC(=O)Nc1cc(C(=O)N2CCOCC2)ccc1S(=O)(=O)c1ccc(C)cc1,14.9
4,CNC(=S)NNC(=O)c1sccc1C,-1.58
5,COc1cccc(OC)c1C(=O)Nc1nc2ccc(S(C)(=O)=O)cc2s1,0.628
6,Cl.O=C(O)CN1C2=NCCCN2c2ccccc21,15.8
7,CCOC(=O)c1nnn(-c2ccc(OC)cc2)c1N,10.4
8,COc1ccc(/C=N/Nc2nnc(Cc3ccc(OC)c(OC)c3)c(=O)[nH]2)cc1,10.5
9,N#CC1=C(N)N=C(SCc2ccccc2)C(C(N)=O)C12CCCCC2 (stereo not drawn),3.52
10,COc1cc(NC(C)=O)ccc1-c1cc2ccccc2oc1=O,8.15
11,COCCN(C(=O)/C=C/c1ccccc1)c1c(N)n(Cc2ccccc2)c(=O)[nH]c1=O,8.91
12,O=[N+]([O-])c1cccnc1NCCc1ccccc1,-2.74
13,CCN1CCN(c2ncnc3c2sc(=S)n3-c2ccccc2)CC1,7.93
14,O=c1oc2ccccc2c2c1nc(C(F)(F)F)n2-c1ccccc1,8.51
15,COc1ccc(NC(=O)CCS(=O)(=O)c2cccc3nonc23)cc1,8.21
16,CCN(CC(=O)NCc1cccs1)C(=O)c1ccc(NS(=O)(=O)c2ccc(F)cc2)cc1,2.01
17,Cc1cc(N)n2nc(-c3ccc(C(C)(C)C)cc3)cc2n1,15.2
18,Cc1n[nH]c(=O)c2c(NC(=O)CSc3ccc(Br)cc3)oc(C)c12,13.8
19,Cc1ccc(CN2CCC(n3nccc3NC(=O)C3CCOC3)CC2)cc1C (stereo not drawn),8.82
20,Cc1ccc(NC(=O)CSc2nnc(-c3cccnc3)o2)c(C)c1,11
21,O=c1[nH]c(/C(=N\O)c2ccccc2)no1,21.9
22,CCn1c(Oc2cccc(Br)c2)nc2c1c(=O)n(C)c(=O)n2C,15.7
23,CSC1=NC2(CC(c3ccccc3)Oc3cc(O)ccc32)CC(C)(C)N1 (stereo not drawn),-68.8

row,Structure (SMILES),"hERG current change (%, negative = inhibition) at 1uM [%]"
1,Cc1cc(C(=O)O)c(CSCc2cc(C(=O)O)oc2C)o1,8.2
2,CC(C)C(C)(C#N)NC(=O)CN1C(=O)NC2(CCCc3ccccc32)C1=O (stereo not drawn),18
3,O=C(OCCc1cc2ccccc2c(=O)o1)c1cccc(Br)c1,14.1
4,O=C(c1ccc(S(=O)(=O)N2CCOCC2)cc1)N1CCc2ccccc2C1,2.13
5,NNC(=O)c1ccc(Cn2cc(Cl)cn2)o1,15.5
6,O=C(N/N=C/c1cc([N+](=O)[O-])ccc1O)c1cccc(NC(=O)c2cccc(Cl)c2)c1,14.8
7,COC(=O)c1ccccc1NC(=O)c1cc2nc(C3CC3)cc(C(F)(F)F)n2n1,11.1
8,O=C(C1CCN(C2CCN(Cc3ccc4c(c3)CCO4)CC2)CC1)N1CCOCC1,4.48
9,COc1cccc(-c2cc(=O)c3cc(NC(=O)c4ccccc4)ccc3[nH]2)c1,-6.55
10,CC1(C)CC(=O)C(/C=N/c2ncccc2C(=O)O)=C(O)C1,6.24
11,CCN(CC)C(=O)CC(c1ccc(N(C)C)cc1)c1c(O)cc(OC)cc1OC (stereo not drawn),11.8
12,COc1ccccc1NC(=O)C(C)OC(=O)c1ccc(-n2cnnn2)cc1 (stereo not drawn),-18
13,Cc1nc2ccccc2c2oc(C(=O)NCC3COc4ccccc4O3)cc12 (stereo not drawn),4.95
14,Cc1cc(=O)oc(C)c1C(=O)NCCNC(=O)c1c(C)cc(=O)oc1C,10.6
15,Cc1cc(/C=N/n2cnnc2)c(C)n1-c1ccc(Cl)cc1,0.149
16,Cc1ccc(CNC(=O)C(=O)NCCC2=CCCCC2)cc1,12.4
17,CCCCOC(=O)N1CCOCCOCCOCC1,10.8
18,COc1ccc(-n2c(SC)nc(O)c(Cc3ccccc3)c2=O)cc1,11.5
19,CC(Nc1ccccc1)c1ccncc1 (stereo not drawn),5.57
20,CCOC(=O)C(C)c1n[nH]c(=O)c2ccccc12 (stereo not drawn),-5.4
21,CCO/N=C(\C)c1c(O)c2ccccc2n(C)c1=O,11.9
22,OCCN1C[C@H](O)[C@@H](O)[C@H](O)[C@H]1CO,-0.311
23,C/C=C(\C)C(=O)Nc1cccc(C2=NOC3(C2)C[C@@H](C(N)=O)N(C(=O)c2cc([N+](=O)[O-])cc([N+](=O)[O-])c2C)C3)c1 (stereo partly drawn),-6.7

row,Structure (SMILES),"hERG current change (%, negative = inhibition) at 1uM [%]"
1,COc1cccc(N2CCN(C(=S)Nc3cc(C)cc(C)c3)CC2)c1,10.2
2,c1ccc(-c2ccc3ccccc3n2)cc1,3.39
3,CCN(CC)c1ccc(S(=O)(=O)N2CCOCC2)cc1NC(=O)Cn1nc(C)c([N+](=O)[O-])c1C,-3.81
4,CCC(C)NS(=O)(=O)c1ccc(OCC(=O)Nc2ccc(F)cc2F)cc1 (stereo not drawn),2.3
5,CC(C)Oc1ccccc1C1NC(=O)CCC1[N+](=O)[O-] (stereo not drawn),15.3
6,O=C(c1ccc(Cl)cc1)c1cnc(Nc2ccccc2)s1,11.4
7,C(=N\n1cnnc1)/c1ccc(OCc2ccccc2)cc1,-5.84
8,O=C(NCc1ccccc1)/C(=C/c1cccc([N+](=O)[O-])c1)NC(=O)c1ccco1,-34
9,CCC1=C(c2ccc(C)cc2)S(=O)(=O)N=C1N1CCC(C(=O)NCCCN2CCCCC2)CC1,26.4
10,COc1ccccc1/C=C/C(=O)NCC(=O)N/N=C/c1cccnc1,16.9
11,Cc1ccc(S(=O)(=O)NCc2ccccc2)cc1C(=O)N(C)CC(=O)Nc1c(Cl)cccc1Cl,10.8
12,Clc1cc(Cl)cc(C2=NCCC(c3ccccc3)O2)c1 (stereo not drawn),8.18
13,Cn1c(/C=C/c2ccc(Br)cc2)c([N+](=O)[O-])c(=O)n(C)c1=O,6.39
14,O=C(O)c1nn(CCOc2ccccc2F)c(=O)c2ccccc12,8.98
15,Cc1nn(-c2ccccn2)c2c1C(c1c(F)cccc1Cl)C1=C(N2)c2ccccc2C1=O (stereo not drawn),5.07
16,O=S(=O)(c1ccc2c(c1)OCCO2)N1CCC(c2nc3ccccc3[nH]2)CC1,6.16
17,COC(=O)[C@@H]1C[C@@]2(O)[C@@H](O)[C@@H](O)[C@@H](O)C[C@H]2N1Cc1ccc(C(F)(F)F)cc1,13.2
18,CCCN(CCC)CCCNS(=O)(=O)c1cc(Br)cc2c1N(C(C)=O)CC2,15.5
19,Cc1ccc(SC(CC(=O)c2ccc(F)cc2)C(=O)O)cc1 (stereo not drawn),15.1
20,CC(=O)N1CCSc2ccc(S(=O)(=O)Nc3ccc(C)cc3)cc21,13.1
21,O=C(O)c1cccc(S(=O)(=O)NCC2CCCO2)c1 (stereo not drawn),-0.0655
